Assay results published in PMC10726135.
Some of the results follow. At the low end of the ranking, values are background and their order means little. The protein was read in a cell extract, so binding may be indirect.

biological target: T1, HNF4alpha8 (COS-7 nuclear extract) (UniProt P41235-5); experiment: protein-binding microarray; conditions: COS-7 nuclear extract on double-stranded Agilent 4x180k PBM; binding buffer, salt, pH and temperature not given; high values mean tight binding; double strand, one strand shown; sequences stand for … in …GCCTAGGGAGATTAGAGTATCGGTCGA
T1 sequence: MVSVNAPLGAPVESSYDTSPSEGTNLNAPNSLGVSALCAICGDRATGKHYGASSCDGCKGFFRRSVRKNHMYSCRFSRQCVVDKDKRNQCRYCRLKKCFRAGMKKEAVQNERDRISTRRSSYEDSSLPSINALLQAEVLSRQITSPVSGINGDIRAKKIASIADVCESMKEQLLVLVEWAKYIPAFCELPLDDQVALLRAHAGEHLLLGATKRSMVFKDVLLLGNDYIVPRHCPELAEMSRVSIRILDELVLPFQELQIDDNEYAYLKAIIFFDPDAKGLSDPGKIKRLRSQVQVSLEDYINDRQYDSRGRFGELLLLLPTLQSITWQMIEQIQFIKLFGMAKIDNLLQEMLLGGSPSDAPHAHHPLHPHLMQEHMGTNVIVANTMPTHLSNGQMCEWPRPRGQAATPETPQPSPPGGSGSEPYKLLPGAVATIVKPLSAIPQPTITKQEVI

Sequence	binding signal (log2 normalized intensity)
AATGGACATCTCTAGGAACTCTGAGCTCTT	-1.11
TACTCCTCCTGGCTTCTGGACTATGCCTTG	3.7
TGCAGCAGGGGAATGGAGACACACCTGCGG	-1.31
GATCAAGGCTCCCTGGCCACAGGAATGTGA	-1.3
TTATGCAGACCTTTGCCCTTTGTTTACATA	5.95
AGGGGATTAGCATTTTTGTCTTTAACCCAA	0.126
GAGTCAACAGGCAGAAGAATGGATGAGCTA	-1.21
CAGGGGTTAGGGTGAAGTAAAGTTATACTT	0.131
TCATTGTACAAACACATACCTTAAATAAGA	-1.25
GCACCCCGGGAGCGCCGAGCACGTCGAGCA	-1.38
GATCAGAATCATAAAGCAGGGAGAGTTGCA	-1.29
ACATTTTAACACAGGACAAATCAAGTGAAA	-1.15
GGGAGGGAACAGTCCAGAGTCTGACAGAAC	-1.34
TGATCGCCCTCCCCCAGAGAGAACAGTCCT	4.87
GTGGCCGGACAGGTTGGGTCTGAAGCCACA	-1.34
AACCAAGCCTGCAGCACCTTGATGCTGGAC	-0.455
GAAAGTGAGCAGGCAGTGTCACAGAAATCA	-1.17
AATACAGAGTCCAAATTCCTTGGTATGGCA	2.57
ACCCAGGCATACTCAGTTATCAACCTTATC	-0.234
TGTCTCTGGTCAGGGAGGGCTTTAGAATGT	-0.436
TTGCTACACTGCCAAAGTTCAACCATACAC	1.53
ATCTACTTTTTGACCTTGCAGTGGCAAGGC	2.37
TTCGGCACCTTCTACACAGCACCCCTTGCA	2.41
TTGGATAACCTTCTGCTGGATGCCCAGGGA	0.481
CTCCTCACTATTGTGCTAATATAAGTCATT	1.14

Sequence	binding signal (log2 normalized intensity)
CTGTTCTAAGCACCTCTGCTTATCTCAACT	-1.23
ACAGGCTGAGGATCTAATGCACCCAGAACC	-1.36
GCGGTTCATCCAACAGGTGAGGTGGGTGTT	1.12
GCTATCAGTACTGAAACATGCCTATGACCG	1.74
ATAAGGGTATGGATTCTGGGACCCACCCAC	1.33
CATATCAGCTTTCTTTTCCAACCATTGACA	2.32
TTGTGTTATGTACTTAGTGTTTTATGTGTA	2.3
ATTCAGAGGTCAGGGGAGAGAGGCAAGATC	-1.25
TTTGTTAAGTACCCACTATAGATTGTGAGA	0.693
ATTTCCTGCAGGTGGTGACCCCAGACCTTA	4.34
GTACAGAGAGCATTCTGCTGCTCTTTAATC	0.966
GCGGAAGGACACAGATTCAGAGTCACATTT	-0.253
TCTGGATGCCTCACCTGGCAAGGCAGCCTC	-1.46
AGAGACCTGGCGGATAGATAGAATCTTAAC	-1.28
AAATTTATCTATTGGGTACAATGTTCACTA	3.63
GTGTTTAACCTTTGGGTGTGTTCAGCGAGG	2.34
ACTAAAGTTCAGGAGGGAGGAGCATTTCAC	-1.24
TTGTGATTTCCAAAAGGTACCACTGTTTGC	0.597
CGGGCGCCCTGGTCTCTGCTACCTGTAGCT	-1.19
TAGGCTGGACTCTGACCCATTCCTTCTCAC	5.01
CAACTCCACGCCCGCCGCCAGGTGGCCGAG	-1.21
TCAGAACTTCACTCAGTGGGGTGTCTGTGT	1.89
AACGGGGACGCTTTAGAGAAACGCACTCGC	-1.11
ACTGACCACAATTACTGAAGTTCCAGAGCC	-1.29
CCAGCACTTCGACCTCACATTGTAGCTAAA	0.346

Sequence	binding signal (log2 normalized intensity)
AACAAGCAGCAAGGCCTGAATGAGCTCTGG	-1.29
TATCATCAACATGCACTAGCAGTCCTATTT	-1.37
CCACTTTGTCCTTCACTTGTAGGAGACCTT	2.3
AATGCGCCTGGACAGATAAGAAGGGGTCAG	4.21
CAAGTTGCAGGGATGGACTTTAATCTCCAA	5.83
ACCCCATTTTCCTAAAAATTATCTTTATCT	-0.86
AAAGTGGTAGCCCACAATCAGTCTGATTGG	-1.3
ATGGCGACAAGAGTGACCTCTGGTCATTCA	4.55
TTCACAGAGCAAGGGTCCAGATTAGAGCAC	2.52
GTTCAATGCTTCAGTGAGCCTTGACCTTCA	4.83
AGGCGGCGGCTCCGGGAGCTGGCGGCGCGG	-1.38
TCTCTGTCCCAAGAGCAAGAAGGTCAGAGG	2.54
TTCCAGTTTTGGAGAGGGGAACGATAAAAT	-1.07
CCTTTGCACCAGAGATAATATGCTTACTTA	0.614
TATCCCAAGACATCAATTAACTTGTCCTTT	2.79
CTGCTGCCCAAAGGTCACCTCTTCAGATAG	3.89
TGTTTTGAGGGTTAAAGGAGATAATGGGTG	1.3
AGCAGGGCTAGACTTTAACCCCCTTGTCTT	5.52
GCAAGTCTCTTTTAGGCTGTCAGCCACCAA	-1.21
ATAGGCGCGCGTGTGTGTGTGTGTGTGGTG	2.86
TTACTATAGGTTCTACTCTCCCCAGTTCAA	3.19
GCCCACACTGCCCATCCCCACTGAAAGTGT	2.97
AGGGTCTTTGCAACTGTGTGTGGCCTGCAC	1.53
CAGAGATAAGGTAGGCACGTAAATAAGGAT	-1.32
CCTCCTCTCTGGGTCAAAGGTCATCGCACC	8.5

Sequence	binding signal (log2 normalized intensity)
TATGTCTCTCCTATTCAGGTATTTGCTCTG	0.488
ATGGCTCAGCCTGGCTGTGTAGACATCACC	-1.51
ATAAACCTGCCTACATCAAGAGGATTACAT	-1.24
TTCAGGACACCTTCAGGGCTGAGCCCACAG	-1.36
TGACGGACAAAGGGCTCTCTCACCAGAAAA	-1.32
CGCGGAGCGGGGGACCGAGAGCCGCCGCCG	-1.36
AAGTCCCACGGCAACCTTCCTGGAAACCTT	-1.43
GCACCCCACCAAGGACTGGACCACCTCCTC	1.8
TTCCACTCTACCGTCCTCCCCCACGACAGA	5.11
GGTGAAGATTGGAAATGAATTGATAAACAC	-1.25
AAGTAGGGGCTGCTGGCATCTCATTACTGA	-1.48
CATCAGCCCTCCTAGCAAACAATGAGGACG	-1.25
GTAAGCCTGGTATTAATGAGGCAAAGGTCA	5.76
CCATTCTCAGGCAGATGGGCAGCACTGTGA	-1.19
ATGGCACCCTTTTGTCAGGAAGTTCCCACA	-0.603
GACCTCAGGGGTCATCAGATAGATGGTCAG	3.3
CGCAATGCATAGCAGAAACATAGAAAGGAG	-1.44
GGACAAAGTTCGTGGAAAGTGGAAGAATGG	0.952
CTCACCCTAAGCCCTGCTCAGGGAATGTGG	-1.24
TTGCATGAAGCACAAAGGTTACTTGCTCCT	1.98
TGTTTATCTGCTGCCCTTCCCTCCACTATT	3.14
TATGTACACTTGCCCTCTCACCAGAAGGGC	1.18
CAGCTTGGAATGTCAGGAACAACTTCGGGA	-1.36
TTATGGAGGAATTTGGACTTTTACTCTTAG	4.43
AAGGAAATCTCTTTTGTTTTTCTTCAAGGA	1.02

Sequence	binding signal (log2 normalized intensity)
GATGGACCAAAGGTCTTGTACAAAGGTCCT	3.85
AGCAGGTCAATAGGGCAGGGGGGAGATGAA	1.78
GGCAAGTGAGGGAGCCTAGATTAGATCAGA	-1.37
TGGTCAGCTCCTGGGAGATGAGCTCTGAAC	1.45
TAAGTTGGTTTACTTATGTCTCCAGAAACC	0.395
GAGGGCTGCCAAAGCTCACAGATGTGGAAT	-1.21
CCCTCTCCTCCCTCGGCCGGCCCGGCAGCC	0.527
TCCTAGCCACCATGCTCGGCTGCCTCTCCA	-1.32
GGAAGCTGGGCACAAATTGGAGAGCATCTT	-1.29
TGGTAGGGGGGTGTTATCTCTGATGCCCTT	2.92
CAGCATGTCTTCTGACCTTTGGCAATATCT	5.1
TCGCTGCCTGCCCCTCTGACCTCTCCTCCT	4.32
GGTGGCTTTTGCTGACATGCTCTTGGAATG	1.25
TTTTTCACTGCTCACAGGTTGTACTATGAC	2.78
ACTGGTTTTTCAGATCCCTCTGGTGCTGAT	0.981
CTCTGCAGACTGGTGCTATGTCCCTGACTG	-0.646
TTTAAAATGTTTCAAAGTTTTTCCCCTTGG	1.75
CTTGGGGGAGGAGGGCAACCTTTGAACTGG	6.02
CTTTGAGTCCCAATCCCCCATCTATTTACA	2.99
GTAGGAGCGGGCTTAACTAGGAGCCTGCAC	-1.27
ATGGAGGCATCATAAACTCCAACTCAGCCC	-1.26
TCCAGAAACCAACCTTTGATCATTCCTGCA	4.94
GGACTTGATCCATTCTACCCCTGTGGTTGA	2.5
AAACACACCCTTGGGGCTGATGTGCACAGT	-0.869
ACACGAGCTGTGCGCTTAGTCCATGACGCA	-1.21

Sequence	binding signal (log2 normalized intensity)
AGACTTAGGATCTAGCAAATTTGGGAGGGA	-1.34
GTCAGTCTGATTGGTTGGAGAAAGCAGCCA	-0.964
ATAGCAAAAGTGACCTTTGCTCCAGTTCCC	8.52
GAGAAGCCTGAAATGAGTTTCATTAGACAG	-1.3
TGGCTCGACAACGATTTGGGAAATGAAGGG	-1.28
GCTCACTGCACCTTGACCTCCTGGGCCCAA	4.47
CAAAGTCAGGTCAGTAGCCCAGGGTCACAC	3.13
ATGTCTAAGGTTTCTCAGCCCCATCCCCCA	5.45
CAGGTTCAAAGGGCTTAATCTTTCCTGCCT	1.84
GAATGTAAATAGCTAGGTACTTTGATCTAC	1.92
AGATCAAGATTTTCAACTTGAGGAAGACAA	-1.36
TTGGAGATAAAGGAACAGGCCCCAGGGACT	-1.3
TCTGGCCTTTTTTTTGTGTGTGTGTCAGAG	2.69
ATACATTTTTAGGTGGATGCCTAGGATTCT	-0.709
TTGACCAAAGTACAGTAATTTCACTGATAT	2.03
TTTCCATTTACCTCCGCTGAACCTAGAGCT	-1.03
ATGTTCAAGAAGTTCCAAAGGCCAGTGTGG	1.92
TAAGCTACTGAAAATGACCTTTGTTCCCTG	9.03
TACTTAGATCAAGATTTTCAACTTGAGGAA	-1.29
AAAGTAAGGTGAAGCCCAGCAGCTCCAGGA	-1.27
